Results taken from publication PMC1630494.

Experiments:
Assay in all cases: FRET or BRET
Details in all cases: remark: other sources report otherwise
[1] = target: T1, survival of motor neurons (SMN) protein, tagged with CFP or YFP, Q16637
[2] = target: coilin, tagged with CFP or YFP, P38432
[3] = target: T1, survival of motor neurons (SMN) …; remark: listed apart in the source
[4] = target: coilin, tagged with CFP or YFP, P38432; remark: listed apart in the source

increase in donor fluorescence after acceptor bleaching (FRET) [2]: 10.3%
increase in donor fluorescence after acceptor bleaching (FRET) [4]: 10.3%
B1: coilin, tagged with CFP or YFP (natural protein)
chain: MAASETVRLRLQFDYPPPATPHCTAFWLLVDLNRCRVVTDLISLIRQRFGFSSGAFLGLYLEGGLLPPAESARLVRDNDCLRVKLEERGVAENSVVISNGDINLSLRKAKKRAFQLEEGEETEPDCKYSKKHWKSRENNNNNEKVLDLEPKAVTDQTVSKKNKRKNKATCGTVGDDNEEAKRKSPKKKEKCEYKKKAKNPKSPKVQAVKDWANQRCSSPKGSARNSLVKAKRKGSVSVCSKESPSSSSESESCDESISDGPSKVTLEARNSSEKLPTELSKEEPSTKNTTADKLAIKLGFSLTPSKGKTSGTTSSSSDSSAESDDQCLMSSSTPECAAGFLKTVGLFAGRGRPGPGLSSQT[here about 200 residues without letters]
increase in donor fluorescence after acceptor bleaching (FRET) [1]: 6.29%
increase in donor fluorescence after acceptor bleaching (FRET) [3]: 6.5%
